{"source": "PubChem BioAssay AID588855", "about": "(National Center for Advancing Translational Sciences (NCATS), 2011)", "note": "Hit rate of the full screen: of about 410,000 compounds, about 5,000 (1.2%) were called active. Inconclusive means that the source gave no clear call. Such entries were picked first, then a sample of the others. Calls follow the shape of the dose curve; as a rule, active = well fitted inhibition curve with a large enough effect; inconclusive = small, poorly fitted or top-dose-only effect; inactive = no such curve, though single readings can be large or run the other way. Where the call is inconclusive, the potency comes from a doubtful curve fit. Potency is read from the fitted curve at half-maximal effect; tags tell the direction and shape of the fitted curve."}
{"experiment": "qHTS for Inhibitors of TGF-b; also: nearly all actives have a fitted effect of over 65% in size", "settings": "HepG2 CAGA-GFP TGF-b/SMAD3 reporter, GFP fluorescence, 18 h, TGF-beta stimulated, 500 pg/mL final; series mostly up to 46.1 µM", "procedure,_shortened": "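First, reporter cells (HEPG2 CAGA-GFP) rested 2 h at 37 degrees C. Next, compounds were pinned in and TGF-beta added to 500 pg/mL final. After 18 h, GFP was imaged per cell and summed per well.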"}
{"compound": "COc1ccccc1CN(C)C(=O)c1ccccc1SCC(=O)N1CCCC1", "Potency": "inactive"}
{"compound": "CC1CCN(c2ccc3c(c2)S(=O)(=O)c2cccc(C(=O)NCc4cccc(F)c4)c2C3=O)CC1", "Potency": "inactive"}
{"compound": "O=c1[nH]c(SCc2ccccc2)nc2[nH]ncc12", "Potency": "inconclusive: 6.31 µM [inhibitor, single point]"}
{"compound": "CCN(Cc1ccccc1)C(=O)C1CCC(CNS(=O)(=O)c2ccc3c(c2)CCCC(=O)N3)CC1", "note": "(stereo not given)", "Potency": "inconclusive: 14.1 µM [inhibitor, single point]"}
{"compound": "CN(N)C(=S)Nc1ccc(F)cc1", "Potency": "inactive"}
{"compound": "CCc1ccc(NC(=O)C2CCC(CNC(=O)[C@@H]3Cc4ccccc4CN3)CC2)cc1", "note": "(stereo not given in full)", "Potency": "inconclusive: 25.1 µM [inhibitor, single point]"}
{"compound": "CC(=O)N1CCCc2cc(S(=O)(=O)NCc3ccccc3Cl)ccc21", "Potency": "inactive"}
{"compound": "CC12CC(c3ccccc3O1)C(/C(N)=N/NC(=O)c1ccc(F)cc1)C(=O)N2", "note": "(stereo not given)", "Potency": "inactive"}
{"compound": "O=[N+]([O-])c1cc(S(=O)(=O)Nc2ccccc2)ccc1NCc1ccccc1", "Potency": "inconclusive: 22.4 µM [inhibitor, single point]"}
{"compound": "Clc1ccccc1/C=C/c1nc(-c2cccnc2)no1", "Potency": "inactive"}
{"compound": "COc1ccc(Br)cc1/C=C/C(=O)Nc1ccc2ccccc2c1", "Potency": "inconclusive: 6.31 µM [inhibitor, single point]"}
{"compound": "Cc1ccc(/C=C/C(=O)NC(=S)Nc2ccccc2C(=O)NC2CCCCC2)cc1", "Potency": "inconclusive: 25.1 µM [inhibitor, single point]"}
{"compound": "Cn1c(CSc2ccccc2)c(C#N)c2ccccc21", "Potency": "inactive"}
{"compound": "C#CCOCCOCCOCCNc1nc(N2CCN(C(=O)CCCCCCCCCCNC(=O)Cn3cc(CCCCCN)nn3)CC2)nc(N2CCN(C(=O)CCCCCCCCCCNC(=O)[C@H](CO)n3cc(CCCSC)nn3)CC2)n1", "Potency": "inconclusive: 15.8 µM [inhibitor, single point]"}
{"compound": "Cc1ccc(C)c(NC(=O)COC(=O)c2cc(=O)c3ccccc3o2)c1", "Potency": "inactive"}
{"compound": "Cc1cccc(-n2ncc3c(N4CCC5(CC4)OCCO5)ncnc32)c1", "Potency": "inconclusive: 0.631 µM [inhibitor, full curve, poor fit]"}
{"compound": "CC1CCN(C(=O)c2ccc(CSc3ccc(Cl)cc3)cc2)CC1", "Potency": "inconclusive: 20 µM [inhibitor, single point]"}
{"compound": "CC(C)CNC(=O)C(=O)Nc1ccc2c(c1)N(S(=O)(=O)c1cccs1)CCC2", "Potency": "inactive"}
{"compound": "Cc1ccc2c(c1)nnn2C1CCN(S(=O)(=O)c2ccc3ccccc3c2)CC1", "Potency": "inconclusive: 20 µM [inhibitor, single point]"}
{"compound": "CCC(C)(C)NC(=O)c1ccc2c(c1)N(CC(=O)OC)C(=O)C(C)(C)O2", "Potency": "inconclusive: 0.199 µM [inhibitor, full curve, poor fit]"}
